Read counts are not given, so values of variants with three or more changes are uncertain.
B1: LINE1-full (parent)
chain: UACGUAGGUGGUUUUCCCCUGAUAGUGCUAAGGGGGCCUGGAAGUUUGGACUGGGCAGAGCUCAACACAGCGUGGCAAAGUGGCUGUGGCUAGACUGCCUCUCUGGAUUCCUCGUCACUCAGCAGGGCAUCUCUGAGAGAAAUGCC

Variants of: B1
Assay: self-cleavage, relative activity (ratio to wild type); higher = more cleavage; in vitro, sequencing; the parent is a self-cleaving ribozyme

Variant	self-cleavage
UACGUAGGUGGCUUUCCCCUGAUAGUGCUAAGGGGGCCUGGGAGUUUGGACUGGGCAGAGCUCAACACAGCGUGGCAAAGUGGCUGUGGCUAGACUGCCUCUCUGGAUUCCUCGUCACUCAGCAGGGCAUCUCUGAGAGAAACGCC	0
UACGUAGGUGGCUUUCCCCUGAUAGUGCUAAGGGGGCCUGGUAGUUAGGACUGGGCAGAGCUCAACACAGCGUGGCAAAGUGGCUGUGGCUAGACUGCCUCUCUGGAUUCCUCGUCACUCAGCAGGGCAUCUCUGAGAGAGAUGCC	1.36
UACGUAGGUGGCUUUCCCCUGAUAGUGCUAAGGGGGCCUGGUAGUUUGGACUGGGCAGAGCUCAACACAGCGUGGCAAAGUGGCUGUGGCUAGACUGCCUCCCUGGAUUCCUCGUCACUCAGCAGGGCAUCUCUGAGAGAAAUGCC	1.52
UACGUAGGUGGCUUUCCCCUGAUAGUGCUAAGGGGGCCUGGAGGUUUGGACUGGGCAGAGCUCGACACAGCGUGGCAAAGUGGCUGUGGCUAGACUGCCUCUCUGGAUUCCUCGUCACUCAGCAGGGCAUCUCUGAGAGAAAUGCC	0
UACGUAGGUGGCUUUCCCCUGAUAGUGCUAAGGGGGCCUGGAGGUUUGGACUGGGCAGAGCUCAACACAGCGUGGCAAUGUGGCUGUGGCUAGACUGCCUCUCUGGAUUCCUCGUCACUCAGCAGGGCAUCUCUGAGAGAAAUGCC	2.53
UACGUAGGUGGCUUUCCCCUGAUAGUGCUAAGGGGGCCUGGAGGUUUGGACUGGGCAGAGCUCAACACAGCGUGGCAAAGUGGCUGUGGCUAGACUGCCUCUCUGGAUUCCUCGUCGCUCAGCAGGGCAUCUCUGAGAGAAAUGCC	0.3
UACGUAGGUGGCUUUCCCCUGAUAGUGCUAAGGGGGCCUGGAGGUUUGGACUGGGCAGAGCUCAACAAAGCGUGGCAAAGUGGCUGUGGCUAGACUGCCUCUCUGGAUUCCUCGUCACUCAGCAGGGCAUCUCUGAGAGAAAUGCC	0.12
UACGUAGGUGGCUUUCCCCUGAUAGUGCUAAGGGGGCCUGGAGGUUUGGACUGGGCAGAGCUCAACACAGGGUGGCAAAGUGGCUGUGGCUAGACUGCCUCUCUGGAUUCCUCGUCACUCAGCAGGGCAUCUCUGAGAGAAAUGCC	0.6
UACGUAGGUGGCUUUCCCCUGAUAGUGCUAAGGGGGCCUGGAGGUUUGGACUAGGCAGAGCUCAACACAGCGUGGCAAAGUGGCUGUGGCUAGACUGCCUCUCUGGAUUCCUCGUCACUCAGCAGGGCAUCACUGGGAGAAAUGCC	0.84
UACGUAGGUGGCUUUCCCCUGAUAGUGCUAAGGGGGCCUGGAGGUUUGGACUGGGCAGAGCUCAACACAGCGUGGCAAAGUAGCUGUGGCUAGACUGCCUCUCUGGAUUCCUCGUCACUCAGCAGGGCAUCUCUGAGAGAAAUGCC	1.35
UACGUAGGUGGCUUUCCCCUGAUAGUGCUAAGGGGGCCUGGAGGUUGGGACUGGGCAGAGCUCAACACAGCGUGGCAAAGUGGCUGUGGCUAGACUGCCUCUCUGGAUUCCUCGUCACUCAGCAGGGCAUCUCUGAGAGAAAUGCC	1.57
UACGUAGGUGGCUUUCCCCUGAUAGUGCUAAGGGGGCCUGGAGGUUUGGACUGGGCAGAGCUCAACACAGCGUGGCAAAGUGGCUGUGGCUAGACAGCCUCUCUGGAUUCCUCGUCGCUCAGCAGGGCAUCUCUGAGAGAAAUGCC	0.14
UACGUAGGUGGCUUUCCCCUGAUAGUGCUAAGGGGGCCUGGAGGUUUGGACUGGGCAGAGCUCAACACAGCGUGGCAAAGUGGCUGUGGCUAGACUGCCUCUCUGGAUUCCUCGACACUCAGCAGGGCAUCUCUGAGAGAAAUGCC	1.34
UACGUAGGUGGCUUUCCCCUGAUAGUGCUAAGGGGGCCUGGAUGUUUGGACUGGGCAGAGCCCAACACAGCGUGGCAAAGUGUCUGUGGCUAGACUGCCCCUCUGGAUUCCUCGUCACUCAGCAGGGCAUCUCUGAGAGAAAUGCC	0.08
UACGUAGGUGGCUUUCCCCUGAUAGUGCUAAGGGGGCCUGGAAGUUUGGUCUGGGCAGAGCUCAACACAGCGUGGCAAAGUGGCUGUGGCUAGACUGCCUCUCUGGAUUCCUCGUCACUCAGUAGGGCAUCCCUGAGAGAAAUGCC	0.83
UACGUAGGUGGCUUUCCCCUGAUAGUGCUAAGGGGGCCUGGAAGUUUGGACUGGGCCGAGCUCAACACAGCGUGGCAAAGUGACUGUGGCUAGACUGCCUCUCUGGAUUCCUCGUCUCUCAGCAGGGCAUCUCUGAGAGAAGUGCC	0.19
UACGUAGGUGGCUUUCCCCUGAUAGUGCUAAGGGGGCCUGGAAGUUUGGACUGGGCGGAGCUCAACACAGCGUGGCUAAGUGGCUGUGGCUAGACUGCCUCUCUGGAUUCCUCGUCACUCAGCAGGGCAUCUCUGAGAGAAUUGCC	0.48
UACGUAGGUGGCUUUCCCCUGAUAGUGCUAAGGGGGCCUGGAAGUUUGGACUGGGCGGAGCUCAACACAGCGUGGCAAAGUGGCUGUGGCUAGACUGCCUCUCUGGUUUCCUCGUCACUCAGCAGGGCAUCUCUGAGAGAAAUGCC	0.85
UACGUAGGUGGCUUUCCCCUGAUAGUGCUAAGGGGGCCUGGAAGUUUGGACUGGGCGGAGCUCAACACAGCGUGGCAAAGUGGCUGUGGCUAGACUGCCUCUCUGGAUUCCUCGUCACUCAGCAGGGCGUCUCUGAGAGAAAUGCC	1.53
UACGUAGGUGGCUUUCCCCUGAUAGUGCUAAGGGGGCCUGGAAGUUUGGACUGGGCGGAGCUCAACACAGCGUGGCAAAGUGGCUGUGGCUAGACUGCCUCUCUGGAUUCCUCGUCACUCAGCAGGGCAUCUCUGAGAGAAGUGCC	1.5

Variant	self-cleavage
UACGUAGGUGGCUUUCCCCUGAUAGUGCUAAGGGGGCCUGGAAGUUUGGACUGGGCGGAGCUCAACACAGCGUGGCAAAGUGGCUGUGGCUAGACUGCCUCUCUGGAUUCCUCGUCACUCAGCAGGGCAUCUCUGAGAAAAAUGCC	0.73
UACGUAGGUGGCUUUCCCCUGAUAGUGCUAAGGGGGCCUGGAAGUUUGGACUGGGCUGAGCUCAACACAGCGUGGCAAAGUGGCUCUGGCUAGACUGCCUCCCUGGAUUCCUCGUCCCUCAGCAGGGCAUCUCUGAGAGAAAUGCC	0.18
UACGUAGGUGGCUUUCCCCUGAUAGUGCUAAGGGGGCCUGGAAGUUUGGACUGGGCUGAGCUCAACACAGCGUGGCAAAGUGGCUGUGGCUAGACUGCCUCUCUGGAUUCCUCGUCACACAGCAGGGCAUCUCUGAGGGAAAUGCC	0.24
UACGUAGGUGGCUUUCCCCUGAUAGUGCUAAGGGGGCCUGGAAGUUUGGACUGGGCAGGGCUCAACACAGCGUGGCGAAGUGGCUGUGGCUAGACUGCCUCUCUGGAUUCCUCGUCACUCAGCAGGGCAUCUCUGAGAGAAAUGCC	0.2
UACGUAGGUGGCUUUCCCCUGAUAGUGCUAAGGGGGCCUGGAAGUUUGGACUGGGCAGGGCUCAACACAGCGUGGCAAAGUGGCUGUGGCUAGACUGCCUCUCUGGAUUCCUCGUCACUCAGCAGGGCAUCUCUGAGAGAAGUGCC	0.13
UACGUAGGUGGCUUUCCCCUGAUAGUGCUAAGGGGGCCUGGAAGUUUGGACUGGGCAGGGCUCAACACAGCGUGGCAAAGUGGCUGUGGCUAGACUGCCUUUCUGGAUUCCUCGUCACUCAGCAGGGCAUCUCUGAGAGAAAUGCC	0.07
UACGUAGGUGGCUUUCCCCUGAUAGUGCUAAGGGGGCCUGGAAGUUUGGACUGGGCAGGGCUCAACACAGCGUGGCAAAGUGGCUGUGGCUAGACUGCCUCUCUGGAUCCCUCGUCACUCAGCAGGGCAUCUCUGAGAGAAAUGCC	0.18
UACGUAGGUGGCUUUCCCCUGAUAGUGCUAAGGGGGCCUGGAAGUUUGGACUGGGCAGUGCUCAGCACAGCGUGGCAAAGUGGCUGUGGCUAGACUGCCUCUCUGGAUUCCUCGUCACUCAGCGGGGCAUCUCUGAGAGGAAUGCC	0
UACGUAGGUGGCUUUCCCCUGAUAGUGCUAAGGGGGCCUGGAAGUUUGGACUGGGCAGUGCCCAACACAGCGUGGCAAAGUGGCUGUGGCUAGACUGCCUCUCUGGAUUCCUCGUCACUCAGCAGGGCAUCUCUGAGUGAAAUGCC	0.05
UACGUAGGUGGCUUUCCCCUGAUAGUGCUAAGGGGGCCUGGAAGUUUGGACUGGGCAGAGCUCCACACGGCGUGGCAAGGUGGCUGUGGCUAGACUGCCUCUCUGGAUUCCUCGUCACUCAGCAGGGCAUCUCUGAGAGAAAUGCC	0
UACGUAGGUGGCUUUCCCCUGAUAGUGCUAAGGGGGCCUGGAAGUUUGGACUGGGCAGAGCUCGACACAGCGUGGCAAAGUGGCUGUGGCUAGACUGCCUCUCUGGAUUCCUCGUCACUCAGCAGGGCAUCUCUGAGUGAAACGCC	0.49
UACGUAGGUGGCUUUCCCCUGAUAGUGCUAAGGGGGCCUGGAAGUUUGGACUGGGCAGAGCUCGACACAGCGUGGCAAAGUGGCUGUGGCUAGACUGCCUCUCUGGAUUCCUCGUCACUCAGCAGGCCAUCUCCGAGAGAAAUGCC	0.67
UACGUAGGUGGCUUUCCCCUGAUAGUGCUAAGGGGGCCUGGAAGUUUGGACUGGGCAGAGCUCGACACAGCGUGGCAAAGUGGCAGUGGCUAGACUGCCUCUCUGGAUUCCUCGUCACUCAGCAGGGCAUCUCCGAGAGAAAUGCC	0.16
UACGUAGGUGGCUUUCCCCUGAUAGUGCUAAGGGGGCCUGGAAGUUUGGACUGGGCAGAGCUCAUCACAGCGUGGCAAAGUGGCUGUGGCUAGACUGCCCCUCUGGAUUCCUCGACACUCAGCAGGGCAUCUCUGAGAGAAAUGCC	0.73
UACGUAGGUGGCUUUCCCCUGAUAGUGCUAAGGGGGCCUGGAAGUUUGGACUGGGCAGAGCUCAUCACAGCGUGGCAAAGUGGCUGUGGCUAGACUGCCUCUCAGGAUUCCUCGUCACUCAGCAGGGCAUCUCUGAGAGAAAUGCC	0.24
UACGUAGGUGGCUUUCCCCUGAUAGUGCUAAGGGGGCCUGGAAGUUUGGACUGGGCAGAGCUCAACGCAGCGUGGCAAAGUGGCUGUGGCUAGACUGCCUCUCUGGAUUCCCCGUCACUCAGCAGGGCAUCUCUGAGAGAAAUGCC	0.69
UACGUAGGUGGCUUUCCCCUGAUAGUGCUAAGGGGGCCUGGAAGUUUGGACUGGGCAGAGCUCAACACGGCGUGGCAAAGUGGCUGUGGCUAGACUGCCUCUCUGGAUUCCUCGUCACUCAGCAGGGCAUCUCGGAGAGAAAUGCC	0.28
UACGUAGGUGGCUUUCCCCUGAUAGUGCUAAGGGGGCCUGGAAGUUUGGACUGGGCAGAGCUCAACACAGCGUGGCUAAGCGGCUGUGGCUAGACUGCCUCUCUGGAUUCCUCGUCACUCAGCAGGGCAUCUCUGAGAGAAGUGCC	1.28
UACGUAGGUGGCUUUCCCCUGAUAGUGCUAAGGGGGCCUGGAAGUUUGGACUGGGCAGAGCUCAACACAGCGUGGCUAAGUGGCUGUGGCUAGACUGCCUCUCUGGAUUCCACGUCACUCAGCAGGGCAUCUCUGAGAGAAAUGCC	1.18

Reference: the RNAGym collection of RNA variant scans (doi:10.7554/elife.90254)
